Source: PubChem BioAssay AID1745853 (National Center for Advancing Translational Sciences (NCATS), 2022)
Where “and” joins values, the source holds several entries; their conditions need not be identical. Identical values can stand only once. The list shows a part of the results. The main result of the screen is listed elsewhere. These columns were measured beside it and carry no call.

How the values were obtained:
Assay in all cases: Primary Screen for Target Class Profiling of Small Molecule Inhibitors of Methyltransferases
[1] = target: Glycine N-methyltransferase (Homo sapiens) (UniProt Q14749); conditions: purified enzyme, MTase-Glo SAH luminescence; measured here: GNMT inhibition; at 40 µM; stronger effect = lower value
Procedure, shortened: (§1)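 Each enzyme was assayed with SAM and its substrate. SAH formation detected by MTase-Glo luminescence; single-point 40 uM screen[…].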

[2] = target: Guanidinoacetate N-methyltransferase (Homo sapiens) (UniProt Q14353); conditions: purified enzyme, MTase-Glo SAH luminescence; measured here: GAMT inhibition; at 40 µM; stronger effect = lower value
Procedure, shortened: as §1

[3] = target: Histamine N-methyltransferase (Homo sapiens) (UniProt P50135); conditions: purified enzyme, MTase-Glo SAH luminescence; measured here: HNMT inhibition; at 40 µM; stronger effect = lower value
Procedure, shortened: as §1

[4] = target: Nicotinamide N-methyltransferase (Homo sapiens) (UniProt P40261); conditions: purified enzyme, MTase-Glo SAH luminescence; measured here: NNMT inhibition; at 40 µM; stronger effect = lower value
Procedure, shortened: as §1

[5] = target: Phenylethanolamine N-methyltransferase (Homo sapiens) (UniProt P11086); conditions: purified enzyme, MTase-Glo SAH luminescence; measured here: PNMT inhibition; at 40 µM; stronger effect = lower value
Procedure, shortened: as §1
On the % scale 0 is the no-effect control and ±100 the full control effect.

Structure (SMILES)	activity change, negative = inhibition [1]	activity change, negative = inhibition [2]	activity change, negative = inhibition [3]	activity change, negative = inhibition [4]	activity change, negative = inhibition [5]
C=CCn1c(=O)c2ccc(C(=O)NC(C)C)cc2n2c(=O)n(CC(=O)Nc3cccc(Cl)c3)nc12	5.75%	0%	7.29%	5.05%	6.72%
CC(=O)N[C@@H]1CCNC[C@@H]1c1nc(-c2ccccc2)no1	-6.49%	-10.5%	-2.66%	-9.2%	-8.34%
c1ccc(-c2cc3c(cn2)NCCN(Cc2ccccn2)C3)cc1	-26.1%	-10.3%	-75.6%	-27.7%	-27.8%
COc1ccc(CN2C(=O)c3cc4sccc4n3CC2(C)C(=O)NC2CCCCCCC2)cc1 (stereo not given)	0.605%	3.65%	5.84%	-3.07%	0.261%
O=C1c2cccnc2OC(COc2ccccc2)CN1Cc1cccs1 (stereo not given)	-8.13%	-7.11%	-3.11%	-9.88%	-6.06%
Cc1scc2c1N(C(=O)CN1CCN(C)CC1)c1ccccc1NC2=O	6.68%	14.8%	14.1%	-6.49%	-0.336%
Cc1c(Cl)cccc1NC(=O)Cn1c(=O)c2ccccc2n2nncc12	-0.698%	0%	4.57%	1.81%	-4.73%
Cn1nc(C2CCCN2)c2c(C(=O)N3CCOCC3)cc(C3CC3)nc21 (stereo not given)	1.71%	0.919%	3.31%	-7.5%	2.63%
O=C(Cn1ccc2cc(S(=O)(=O)N3CCCCC3)ccc21)NCCCc1ccccc1	-1.97%	5.13%	-0.1%	-1.73%	-1.22%
COc1ccccc1NC(=O)CSc1nnc2n(Cc3ccc(C)cc3)c(=O)c3ccccc3n12	-3.65%	3.9%	3.28%	-3.17%	0.428%
CCCCS(=O)(=O)N1CCC(F)(c2nc(-c3ccccc3)no2)CC1	-4.2%	-2.75%	0.68%	-6.19%	-3.13%
CCCN1C(=O)c2c(C(=O)NCc3ccc(OCC)cc3)ncn2CC1(C)C(=O)NCCC(C)C (stereo not given)	0.062%	0.112%	2.18%	2.48%	6.1%
CCC(C)NC(=O)Cn1nc(C)c2sc(-c3ccccc3)nc2c1=O (stereo not given)	-2.58%	-5.1%	-0.293%	-6.59%	-0.45%
CCCC1c2ccc(C)n2CCN1C(=O)Nc1ccc(C)cc1Cl (stereo not given)	-3.12%	2.73%	-6.55%	0.303%	-1.25%
CCc1cccc(N2C(=O)CSc3c(c4ccccc4n3C)C2C(=O)NCCCOC(C)C)c1 (stereo not given)	-1.8%	0%	5.48%	-11.6%	0.526%
COc1ccc(C(=O)N2CCC(N3CCCC3=O)CC2)cc1	-3.54%	-4.36%	-0.956%	-5.84%	-1.87%
CCCN1C(=O)c2c(C(=O)NCc3ccccc3Cl)ncn2CC1(C)C(=O)NCc1ccc(C)cc1 (stereo not given)	-3.57%	4%	7.46%	1.83%	3.16%
Cc1cc2c(cc1Cl)N(C(=O)Nc1ccc(Oc3cccnc3C)nc1)CC2	-22.1%	1.5%	-3.68%	-16.3%	-9.99%
COc1cccc(-c2ccc(C(=O)N3CCC(NC(=O)N(C)C)CC3)cc2)c1	-5.25%	-2.2%	-2.19%	-11.8%	-6.64%

Structure (SMILES)	activity change, negative = inhibition [1]	activity change, negative = inhibition [2]	activity change, negative = inhibition [3]	activity change, negative = inhibition [4]	activity change, negative = inhibition [5]
Cc1c(-c2ccnn2C)cc(C(=O)NCc2ccc(S(C)(=O)=O)cn2)c(=O)n1-c1cccc(C(F)(F)F)c1	1.01% and -13.5% and 2.26%	-4.01% and -21.7% and -10.7%	0.255% and -2.75% and -3.42%	-20.9% and -29.8% and -22%	-10.5% and -8.65% and -11.6%
Cc1cccc(NC(=O)N2CCn3cccc3C2Cc2ccccc2)c1 (stereo not given)	5.58%	0%	4.9%	1.44%	0.597%
Cc1ccc([C@@H]2CN(C(=O)c3c(-c4ccccc4)noc3C)C[C@H]2N(C)C)cc1	-3.71%	-2.68%	-3.04%	-2.24%	1.29%
N#CC1C(=O)Nc2scc(-c3ccc(-c4ccccc4O)cc3)c2C1=O (stereo not given)	-29.6%	-5.6%	4.9%	-39.5%	-5.26%
Cc1ccc2c(c1)N(CC(=O)N1[C@@H]3CC[C@H]1CNC(=O)C3)C(=O)CO2	-1.86%	-2.02%	0.463%	-6.84%	-7.12%
CC(C)=CCC[C@](C)(O[C@@H]1O[C@H](CO[C@@H]2O[C@@H](CO)[C@H](O)[C@H]2O)[C@@H](O)[C@H](O)[C@H]1O)[C@H]1CC[C@]2(C)[C@@H]1[C@H](O)C[C@@H]1[C@@]3(C)CC[C@H](O[C@@H]4O[C@H](CO)[C@@H](O)[C@H](O)[C@H]4O[C@@H]4O[C@H](CO)[C@@H](O)[C@H](O)[C@H]4O)C(C)(C)[C@@H]3CC[C@]12C	-4.17%	10%	8.19%	0.712%	4.39%
CCN1C(=O)c2cc(C(=O)N3CCN(c4cccc(OC)c4)CC3)nn2CC1(C)C(=O)NC1CCCC1 (stereo not given)	1.19%	1.26%	0.171%	5.21%	3.25%
Cc1ccc(CNS(=O)(=O)c2ccc3[nH]c4c(c3c2)CCCC4)o1	-1.91%	4.43%	-1.64%	-4.33%	-3%
CC(=O)c1ccc(S(=O)(=O)NC(=O)NC2CCCCC2)cc1	8.45%	8.84%	12.3%	-1.24%	3.51%
CC(C)(C)C(=O)N1CCC(N2CCCC(C(=O)NCc3ccccc3)C2)CC1 (stereo not given)	-0.735%	-0.612%	0.915%	0.383%	-1.05%
COc1ccc(CNC(=O)c2cc3n(n2)CC(C)(C(=O)NCc2ccccc2)N(C)C3=O)cc1OC (stereo not given)	3.67%	4.86%	7.39%	4.47%	4.03%
CCCn1c(=O)c2ccccc2n2c(=O)n(CC(=O)Nc3cccc(F)c3)nc12	1.96%	0%	7.55%	3.06%	4.57%
O=c1c2ccccc2n2c(SCc3ccccc3F)nnc2n1CCc1ccccc1	-4.27%	7.07%	-0.889%	-10.7%	-4.09%
CCCN1C(=O)c2c(C(=O)NCc3cc(OC)ccc3OC)ncn2CC1(C)C(=O)NC1CCCC1 (stereo not given)	-1.02%	4.07%	5.79%	1.25%	5.12%
CSc1ccc(CCN2C(=O)c3cc(-c4ccccc4)nn3CC2(C)C(=O)NCc2ccccc2)cc1 (stereo not given)	4.53%	0%	3.58%	1.4%	-14.9%
CCOC(=O)c1cc2n(n1)CC(C)(C(=O)NCc1ccccc1OC)N(c1cc(OC)cc(OC)c1)C2=O (stereo not given)	0.694%	1.01%	4.86%	-1.41%	0.307%
CCN(CC)CC(O)Cn1c2c(c3cc(C)ccc31)CCCC2=O (stereo not given)	-15.4%	-1.64%	-0.851%	2.28%	-5.86%
CC(O)(C(=O)C1CC1(CO)COC1OC(CO)C(O)C(O)C1O)C1C(O)CC2C3CC=C4CC(O)CC(O)C4(C)C3C(O)CC21C (stereo not given)	1.16%	3.06%	6.26%	-6.26%	6.12%
